Here are results for 130 sequences from a collection of fitness landscapes (doi:10.1038/s41467-024-54723-y).

In all, about 18,000 sequences were measured (“TetR repression strength (sort-seq, GFP reporter)”: median about 0.23, highest 2% from about 0.68 on). Some of the results follow.

Chain of UniProt P04483 (P04483 whole entry): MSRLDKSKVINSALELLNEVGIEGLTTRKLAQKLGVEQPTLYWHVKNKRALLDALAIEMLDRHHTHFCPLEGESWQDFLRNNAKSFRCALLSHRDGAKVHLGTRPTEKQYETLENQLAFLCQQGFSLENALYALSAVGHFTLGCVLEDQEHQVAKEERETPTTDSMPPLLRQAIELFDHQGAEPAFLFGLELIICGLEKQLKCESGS

This test deals with TetR (class B, Tn10) (UniProt P04483). Kind of test: TetR repression strength (sort-seq, GFP reporter) (relative to tetO2 = 1); higher = stronger repression. To be noted: E. coli. In short, it runs like this:
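Repression strength was calculated by subtracting the read-weighted mean bin from the top bin index plus one and dividing by the unaltered operator's value. The plasmid library was low-copy in E. coli SIG10-MAX, with eight randomized operator positions between a constitutive promoter and sfGFP and constitutive TetR. Cultures grew 5 h at 37 °C in LB containing 50 µg/mL chloramphenicol before 10^6 cells were sorted by FACS into 13 fluorescence bins, each sequenced on Illumina. Three independent transformations were averaged for members having ≥30 reads in all replicates and a CV ≤0.5.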
In turn, TCCCTCGTAGTCTGCGAGA came in with a TetR repression strength of 0.447.
Under TCCCAAGAAGTGGTAGAGA stands 0.18; under TCCCTATCAGTTGTGGAGA, 0.726.
The figure for TCCCGGTTAGTTAAAGAGA is 0.312; for TCCCAGCCAGTGCGCGAGA it is 0.294.
Under TCCCCGACAGTGCCCGAGA stands 0.419; under TCCCGCGTAGTGTAAGAGA, 0.404.
In turn, TCCCCCTAAGTACGTGAGA had a TetR repression strength of 0.429.
The figure for TCCCCGAAAGTATGAGAGA is 0.209; for TCCCGCTTAGTAGTCGAGA it is 0.24.
As for TCCCACCGAGTAGGGGAGA, the TetR repression strength worked out at 0.16.
Under TCCCATGAAGTAGGGGAGA stands 0.095.
The sequence TCCCAGACAGTCGTTGAGA had a TetR repression strength of 0.187.
In the case of TCCCAGTCAGTTATTGAGA, the TetR repression strength was determined as 0.368.
The figure for TCCCATTAAGTTAACGAGA is 0.323.
Under TCCCATGGAGTCAGAGAGA stands 0.125; under TCCCAGCGAGTTCGGGAGA, 0.3; under TCCCTGGGAGTTAGTGAGA, 0.146.
Under TCCCTAGTAGTCGCCGAGA stands 0.294.
The sequence TCCCGTTCAGTGATGGAGA returned a TetR repression strength of 0.589.
Consider TCCCAATAAGTCGTGGAGA, for which the TetR repression strength stood at 0.204.
In turn, TCCCACGAAGTAAGGGAGA showed a TetR repression strength of 0.394.
Under TCCCAATGAGTGCAGGAGA stands 0.19; under TCCCACAGAGTCCGAGAGA, 0.282.
In the case of TCCCATATAGTGGCAGAGA, the TetR repression strength amounted to 0.186.
The figure for TCCCCCATAGTTGGTGAGA is 0.222; for TCCCTAGGAGTAGGGGAGA it is 0.185; for TCCCGCTAAGTTAGAGAGA it is 0.0216.
Under TCCCATGGAGTGGGGGAGA stands 0.141.
The figure for TCCCTTCGAGTGCCCGAGA is 0.399; for TCCCCAGTAGTGAGTGAGA it is 0.217; for TCCCTGGTAGTCGAGGAGA it is 0.292.
Sequence TCCCGGTTAGTGAGGGAGA came in with a TetR repression strength of 0.216.
The figure for TCCCTATTAGTAGTGGAGA is 0.683; for TCCCATGCAGTGGGTGAGA it is 0.167; for TCCCGTCTAGTCTTTGAGA it is 0.366.
The figure for TCCCGAGCAGTGACAGAGA is 0.736.
Under TCCCCGGGAGTCTAGGAGA stands 0.285; under TCCCAACTAGTTTCAGAGA, 0.351.
Sequence TCCCTATAAGTTTTAGAGA returned a TetR repression strength of 0.286.
Under TCCCTACGAGTTGGCGAGA stands 0.466; under TCCCAATTAGTGCGGGAGA, 0.22.
Take TCCCGGGAAGTGATTGAGA: the TetR repression strength turned out to be 0.261.
The figure for TCCCAACGAGTGGTCGAGA is 0.429; for TCCCAGCAAGTCCAAGAGA it is 0.106.
The figure for TCCCGCTGAGTTAGGGAGA is 0.929; for TCCCTAACAGTGAGGGAGA it is 0.165.
The figure for TCCCTGGTAGTCCGTGAGA is 0.13; for TCCCCGTTAGTCTAAGAGA it is 0.0674.
With TCCCCGGGAGTTTGGGAGA, the TetR repression strength came out at 0.369.
Under TCCCCCTAAGTGTGGGAGA stands 0.184; under TCCCGTGGAGTTAGGGAGA, 0.24.
The figure for TCCCAGGAAGTCACGGAGA is 0.259; for TCCCAGGTAGTGTTAGAGA it is 0.388; for TCCCCCAAAGTATAAGAGA it is 0.364.
Under TCCCGCACAGTCGACGAGA stands 0.0481.
Sequence TCCCGCGGAGTCTGGGAGA yielded a TetR repression strength of 0.199.
In turn, TCCCTCTCAGTAGAGGAGA showed a TetR repression strength of 0.238.
In turn, TCCCTACCAGTCAGGGAGA yielded a TetR repression strength of 0.189.
The figure for TCCCAGTGAGTTGGGGAGA is 0.31; for TCCCAGCGAGTGGTAGAGA it is 0.263.
As to TCCCTAAAAGTGTCTGAGA, the TetR repression strength is 0.246.
Under TCCCCTAGAGTGAGGGAGA stands 0.0829.
On to TCCCGTCGAGTCGTAGAGA, for which the TetR repression strength worked out at 0.255.
The figure for TCCCCTGTAGTGTAAGAGA is 0.154.
Under TCCCAGGGAGTCCAAGAGA stands 0.186.
Under TCCCGACCAGTCGTAGAGA stands 0.348.
TCCCTCTAAGTTTGGGAGA had a TetR repression strength of 0.239.
The figure for TCCCTAACAGTGATAGAGA is 0.816; for TCCCAGTAAGTACCCGAGA it is 0.356; for TCCCGCCCAGTGCTCGAGA it is 0.181.
Under TCCCTGCGAGTCTAGGAGA stands 0.258; under TCCCACTGAGTGGGTGAGA, 0.27; under TCCCTGCCAGTTCTGGAGA, 0.256.
Under TCCCGCACAGTATGGGAGA stands 0.364.
The sequence TCCCAACCAGTGGGAGAGA came in with a TetR repression strength of 0.516.
The figure for TCCCGCGAAGTGAGGGAGA is 0.234; for TCCCATAGAGTCTCTGAGA it is 0.426.
The figure for TCCCCCGTAGTACGGGAGA is 0.213; for TCCCGCTGAGTTAGAGAGA it is 0.0464.
Under TCCCTGACAGTGGGGGAGA stands 0.146; under TCCCCGTAAGTAGGGGAGA, 0.194.
TCCCGTTTAGTTGGAGAGA: the TetR repression strength was found to be 0.304.
TCCCAGATAGTGAAAGAGA showed a TetR repression strength of 0.366.
Under TCCCCGGGAGTGTAGGAGA stands 0.36; under TCCCCGAAAGTGGTAGAGA, 0.095.
Under TCCCGTAGAGTTTGCGAGA stands 0; under TCCCATTCAGTCAAAGAGA, 0.308; under TCCCTGTGAGTATCGGAGA, 0.058.
The figure for TCCCCCCTAGTGACAGAGA is 0.624; for TCCCATGGAGTATGCGAGA it is 0.286.
TCCCTTGAAGTTCGGGAGA: the TetR repression strength stood at 0.176.
In turn, TCCCAAATAGTGCGCGAGA registered a TetR repression strength of 0.289.
The figure for TCCCCTGGAGTCCCGGAGA is 0.314; for TCCCATGTAGTGCAAGAGA it is 0.318; for TCCCTCCGAGTTTGTGAGA it is 0.507.
Under TCCCCTCGAGTAGTTGAGA stands 0.231; under TCCCTATGAGTTCGTGAGA, 0.349; under TCCCTATGAGTTGAAGAGA, 0.326.
The figure for TCCCTAAAAGTCCCCGAGA is 0.275.
In turn, TCCCCGCTAGTCTGAGAGA showed a TetR repression strength of 0.201.
Under TCCCGGAAAGTGCGGGAGA stands 0.181; under TCCCGGACAGTGGAGGAGA, 0.168.
As to TCCCTCACAGTGAAAGAGA, the TetR repression strength amounted to 0.252.
Sequence TCCCACTCAGTCTAGGAGA had a TetR repression strength of 0.305.
The figure for TCCCTGACAGTACTAGAGA is 0.533; for TCCCGTTGAGTATGGGAGA it is 0.308; for TCCCGTGTAGTTCCTGAGA it is 0.112.
Under TCCCGCGGAGTGGTCGAGA stands 0.127; under TCCCTCTTAGTCTCCGAGA, 0.341.
The figure for TCCCGCCCAGTCGATGAGA is 0.221; for TCCCACAGAGTGCTTGAGA it is 0.408; for TCCCCAGTAGTAGTGGAGA it is 0.246.
In turn, TCCCGCAGAGTTCCAGAGA displayed a TetR repression strength of 0.262.
The figure for TCCCTGCTAGTGGCTGAGA is 0.136; for TCCCGCTAAGTAGATGAGA it is 0.00942.
The figure for TCCCGGCTAGTACGAGAGA is 0.453; for TCCCTTTGAGTGGTGGAGA it is 0.245.
The sequence TCCCGGGTAGTAGCGGAGA returned a TetR repression strength of 0.555.
TCCCGGCAAGTTGAAGAGA showed a TetR repression strength of 0.146.
The figure for TCCCGCCGAGTCCTCGAGA is 0.35; for TCCCCGAGAGTGCGGGAGA it is 0.111; for TCCCGGTTAGTCCCGGAGA it is 0.185.
The figure for TCCCTGAAAGTGTGTGAGA is 0.233; for TCCCTGCCAGTTTGCGAGA it is 0.207; for TCCCAAGGAGTGGAAGAGA it is 0.323.
With TCCCGATCAGTGTTAGAGA, the TetR repression strength was 0.556.
The sequence TCCCCCTTAGTTGATGAGA registered a TetR repression strength of 0.289.
Under TCCCGTATAGTGCAGGAGA stands 0.238; under TCCCCACGAGTGACGGAGA, 0.118.
